# In PubChem BioAssay AID686970 (National Center for Advancing Translational Sciences (NCATS), 2013):
# Screen size: about 360,000 compounds; about 6,000 (1.7%) were called active. Inconclusive results, whose numbers are uncertain, are shown with a selection of clear calls. Calls follow the shape of the dose curve; as a rule, active = well fitted cell-killing curve with a large enough effect; inconclusive = small, poorly fitted or top-dose-only effect, or effect the other way; inactive = flat fitted curve, though single readings scatter. No potency is given beside an inconclusive call; the fits are too rough.
# Experiment: qHTS for induction of synthetic lethality in tumor cells producing 2HG: qHTS for the HT-1080-NT fibrosarcoma cell line;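 also: NT is the 2HG producing partner of a matched IDH1 knockdown line; nearly all actives have a fitted effect of over 55% in size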;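 as to activity, negative = less viability: 0% = DMSO-treated cells and -100% = media-only wells without cells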
# Conditions: HT-1080-NT fibrosarcoma viability, CellTiter-Glo ATP luminescence, 48 h; activity, negative = less viability: at 46.1 µM (top of the series) unless noted
# Procedure, shortened: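 Luminescent CellTiter-Glo readout after 48 hours of compound exposure at 37 degrees C defined viability of HT-1080-NT cells. Activity was normalized to DMSO wells and cell-free media wells; concentration-response curves were fitted and assigned curve classes.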
# Potency is read from the fitted curve at half-maximal effect; tags tell the direction and shape of the fitted curve.
SMILES,"activity, negative = less viability",Potency
O=C(CN(C(=O)CCC(=O)Nc1ccccn1)C1CCCC1)NCc1ccc(F)cc1,inactive: 10.3%,–
OC[C@@H]1CN(Cc2ccncc2)C[C@H](n2cnc3c(NCc4ccco4)ncnc32)O1,–,"inconclusive [rising, single point]"
CCCCC(=O)NC(c1ccccc1OC)c1ccc2cccnc2c1O (centres undefined),–,"inconclusive [cytotoxic, full curve]"
CCCC(=O)Nc1c(C(=O)OCC)[nH]c2ccccc12,inconclusive: -10.8% [cytotoxic],–
O=C(NCCc1ccccc1)c1ccc(-c2cccnc2)c2ccoc12,inconclusive: 1.31%,–
CCN(C(=O)COC(=O)CCOc1ccccc1C)c1c(N)n(Cc2ccccc2)c(=O)[nH]c1=O,inactive: -1.72%,–
O=[N+]([O-])c1cccc(-c2ccc(SCc3ccccn3)nn2)c1,inconclusive: -2.37%,–
CC[N+](C)(C)CC/C=C1/c2ccccc2Sc2ccc(Cl)cc21,inactive: 10.4%,–
CC1CCc2[nH]c3ccc(C(=O)N(C)CC(=O)Nc4ccccc4Cl)cc3c2C1 (centres undefined),inactive: -0.317%,–
CC(C)(C)NC(=O)C(c1ccc(-c2ccccc2)cc1)N(C[C@H]1CC[C@@H]([C@@H]2CC[C@H](CO)O2)O1)C(=O)c1ccc2ccccc2c1 (some centres undefined),–,"inconclusive [cytotoxic, single point]"
CCOc1ccc(CNC(=O)C2CCCN(c3nnc(C)c4c(C)n(-c5ccccc5)nc34)C2)cc1 (centres undefined),–,"inconclusive [cytotoxic, single point]"
COc1ccc(-c2cc(NC(C)=O)c3ncc(-c4cccc(C(F)(F)F)c4)n3c2)c(OC)c1,inactive: -28.6%,–
CNc1ccc(Br)cc(C(=O)/C=C/c2cccc(OC)c2)c1=O,–,"inconclusive [cytotoxic, single point]"
CC(C)C[C@H](NC(=O)c1[nH]cnc1C(=O)Nc1ccc(Cl)cc1)C(=O)OC(C)(C)C,–,"inconclusive [cytotoxic, single point]"
Cc1c(/C=C/C(=O)c2ccccc2O)cnn1C,–,"inconclusive [rising, full curve, poor fit]"
CC(Sc1ccccc1)C(=O)NN=C1CCCCCCC1 (centres undefined),inactive: 5.6%,–
COc1ccc(C(C)NCCC(c2ccc(OC(C)C)cc2)c2ccccc2OC)cc1 (centres undefined),–,active: 14.6 µM

SMILES,"activity, negative = less viability",Potency
CCOC(=O)c1[nH]c(C=O)c(C(=O)OCC)c1C,–,active: 1.64 µM
COc1ccc(-c2csc(NC(=O)CSc3nnc(Nc4ccccc4C)s3)n2)cc1,–,active: 20.6 µM
Cc1ncc(S(=O)(=O)c2ccccc2)c(-c2ccccc2)n1,inactive: 10.8%,–
COc1ccc(NS(=O)(=O)c2ccc(N3CCOCC3)c(NC(=O)c3ccc(F)cc3)c2)cc1,–,"inconclusive [cytotoxic, single point]"
FC(F)(F)Oc1ccccc1C(c1nnnn1C1CCCC1)N1CCN(C/C=C/c2ccccc2)CC1 (centres undefined),–,"inconclusive [cytotoxic, single point]"
O=C(/C=C/[C@H]1O[C@@H](n2cnc3c(NC(=O)c4ccccc4)ncnc32)[C@H](O)[C@@H]1O)N[C@@H](CO)Cc1c[nH]c2ccccc12,–,"inconclusive [rising, single point]"
Cc1ccc(C(=O)NCCNC(=O)c2ccccn2)cc1,–,"inconclusive [rising, partial curve, poor fit]"
CCCCCCCCN1C(=O)[C@H](CC(=O)NCc2cccs2)C[C@@]2(C(=O)OCC)CCCC=C12,–,"inconclusive [cytotoxic, single point]"
CCN(CC)S(=O)(=O)c1ccc(N2CCCC2)c(NS(=O)(=O)c2ccc([N+](=O)[O-])cc2)c1,inactive: 2.94%,–
CCCC(=O)NC(=S)Nc1cccc(Cl)c1N1CCCC1,–,"inconclusive [cytotoxic, single point]"
O=S(=O)(c1ccccc1)c1cnc(-c2ccccc2)nc1N1CCCCC1,inactive: -1.63%,–
O=C(Cc1ccc(NC(=O)C2CCN(C(=O)c3ccccc3)CC2)cc1)Nc1ccc(C(=O)N2CCOCC2)cc1,inactive: 12.3%,–
C[C@H](CO)N1C[C@H](C)[C@@H](CN(C)C(=O)Nc2ccc(F)cc2)Oc2cc(Br)ccc2S1(=O)=O,inactive: -4.7%,–
COc1ccc(NS(=O)(=O)c2cccc(NC(=O)C3=NN(c4ccccc4)C(=O)CC3)c2)cc1,–,"inconclusive [cytotoxic, single point]"
COc1ccc(CNC(=O)CN(C(=O)CCC(=O)Nc2ccccn2)c2cccc(C)c2C)cc1,inactive: 0.168%,–
OC(c1ccccc1)(c1nc(/C=C/c2ccc(C(F)(F)F)cc2)cs1)C(F)(F)F (centres undefined),–,"inconclusive [cytotoxic, single point]"
Cc1ccc(N2CC(O)Cn3c2nc2c3c(=O)[nH]c(=O)n2C)cc1 (centres undefined),inactive: 8.03%,–
